Test results taken from the supplement of paper PMC10126150.
Sequences with one replicate were seen in a single cluster, so their values are uncertain.

Tested on: ATP
Assay: switch fluorescence ratio, 500 uM ATP over buffer (Cy3 cluster intensity, sum of 5 cycles each) (fold (ratio)); higher = stronger signal-on switching upon ATP binding; sequences stand for … in TCGTCGGCAGCGTCAGATGTGTATAAGAGACAGTTTTTTTTTTTTTTTTTTTTTTTTT…TC
Conditions: aptamer strand: ATP DNA aptamer (quencher-CACCTGGGGGAGTATTGCGGAGGAAGG + anchor), 100 nM annealed; ATP concentration: 500 uM; one replicate
In short: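 Clusters carrying Cy3-labelled switching strands on a modified Illumina MiSeq flow-cell were annealed to 100 nM quencher-labelled ATP aptamer and imaged in selection buffer. They were imaged again after 15 min with 500 uM ATP at 22 °C, over five buffer/ATP cycles with NaOH stripping and re-annealing in between. For each cluster, the fluorescence ratio is the summed Cy3 intensity of the target cycles divided by that of the buffer cycles, averaged per switch-domain sequence. Clusters outside 100-1000 RFU were left out.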
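Note: ATP exposure 15 min at 22 °C before imaging.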

Q: Which switch fluorescence ratio does the source give for GGGATCACCT here?
A: 1.01

Q: How did the switch fluorescence ratio turn out when GGGATCTTCC was run?
A: 1.66

Q: How did the switch fluorescence ratio turn out when GGGATGACAT was run?
A: 1.01

Q: For GGGATGGGTG, which switch fluorescence ratio is on record?
A: 1.04

Q: For GGGATTAGAC, which switch fluorescence ratio is on record?
A: 1.04

Q: With GGGATTAGCC as the sequence, how does the switch fluorescence ratio read?
A: 0.936

Q: How did the switch fluorescence ratio turn out when GGGATTCCAT was run?
A: 1.01

Q: How did the switch fluorescence ratio turn out when GGGATTGACG was run?
A: 1.02

Q: For GGGATTGCAT, which switch fluorescence ratio is on record?
A: 1.03

Q: How did the switch fluorescence ratio turn out when GGGATTTAA was run?
A: 0.968

Q: GGGATTTCTC was tested. Which switch fluorescence ratio did it give?
A: 0.975

Q: How did the switch fluorescence ratio turn out when GGGATTTGAG was run?
A: 0.945

Q: Which switch fluorescence ratio does the source give for GGGCAATAGG here?
A: 1.16

Q: GGGCACTGTA was tested. Which switch fluorescence ratio did it give?
A: 1.03

Q: For GGGCAGCACG, which switch fluorescence ratio is on record?
A: 0.997

Q: Which switch fluorescence ratio does the source give for GGGCATTG here?
A: 0.988

Q: For GGGCCCGCGG, which switch fluorescence ratio is on record?
A: 0.989

Q: How did the switch fluorescence ratio turn out when GGGCCTATTT was run?
A: 0.997

Q: Which switch fluorescence ratio does the source give for GGGCCTTCCA here?
A: 1.28

Q: For GGGCGAACAC, which switch fluorescence ratio is on record?
A: 1.01

Q: Which switch fluorescence ratio does the source give for GGGCGACGGT here?
A: 1.02

Q: How did the switch fluorescence ratio turn out when GGGCGAGGCG was run?
A: 0.955

Q: How did the switch fluorescence ratio turn out when GGGCGAGTAG was run?
A: 1

Q: With GGGCGGATAT as the sequence, how does the switch fluorescence ratio read?
A: 1

Q: GGGCGGTGCG was tested. Which switch fluorescence ratio did it give?
A: 1.04

Q: With GGGCGGTTCC as the sequence, how does the switch fluorescence ratio read?
A: 1.03

Q: For GGGCGTGGCG, which switch fluorescence ratio is on record?
A: 0.966

Q: Which switch fluorescence ratio does the source give for GGGCGTTGCG here?
A: 1.05

Q: GGGCTACATG was tested. Which switch fluorescence ratio did it give?
A: 1.03

Q: How did the switch fluorescence ratio turn out when GGGCTATGCG was run?
A: 1.08

Q: GGGCTCAAGA was tested. Which switch fluorescence ratio did it give?
A: 0.978

Q: GGGCTGCGGC was tested. Which switch fluorescence ratio did it give?
A: 0.992

Q: For GGGCTGCGTG, which switch fluorescence ratio is on record?
A: 0.949

Q: GGGCTTGAG was tested. Which switch fluorescence ratio did it give?
A: 1.01

Q: GGGCTTTACA was tested. Which switch fluorescence ratio did it give?
A: 0.959

Q: For GGGGAAAAC, which switch fluorescence ratio is on record?
A: 0.955

Q: How did the switch fluorescence ratio turn out when GGGGAAAGC was run?
A: 0.941

Q: For GGGGACGCGC, which switch fluorescence ratio is on record?
A: 0.982

Q: GGGGACTAG was tested. Which switch fluorescence ratio did it give?
A: 1.05

Q: How did the switch fluorescence ratio turn out when GGGGAGCCGC was run?
A: 1.07

Q: With GGGGAGCGGA as the sequence, how does the switch fluorescence ratio read?
A: 0.96

Q: Which switch fluorescence ratio does the source give for GGGGAGGTGG here?
A: 1.01

Q: With GGGGATTCTA as the sequence, how does the switch fluorescence ratio read?
A: 0.963

Q: How did the switch fluorescence ratio turn out when GGGGATTGAC was run?
A: 1.12

Q: Which switch fluorescence ratio does the source give for GGGGCAAAG here?
A: 1.01

Q: With GGGGCACGAG as the sequence, how does the switch fluorescence ratio read?
A: 1

Q: With GGGGCACGGA as the sequence, how does the switch fluorescence ratio read?
A: 0.977

Q: GGGGCCAGTA was tested. Which switch fluorescence ratio did it give?
A: 1.07

Q: How did the switch fluorescence ratio turn out when GGGGCCAGTT was run?
A: 1

Q: For GGGGCCCCGA, which switch fluorescence ratio is on record?
A: 0.941

Q: For GGGGCCCTGA, which switch fluorescence ratio is on record?
A: 0.982

Q: How did the switch fluorescence ratio turn out when GGGGCCGGCT was run?
A: 1.08

Q: With GGGGCGGTTC as the sequence, how does the switch fluorescence ratio read?
A: 0.995

Q: GGGGCTAAAC was tested. Which switch fluorescence ratio did it give?
A: 2.11

Q: Which switch fluorescence ratio does the source give for GGGGCTCCGT here?
A: 1.02

Q: For GGGGGACCGC, which switch fluorescence ratio is on record?
A: 0.967

Q: How did the switch fluorescence ratio turn out when GGGGGAGCCA was run?
A: 1.02

Q: How did the switch fluorescence ratio turn out when GGGGGATACA was run?
A: 1.1

Q: For GGGGGCATG, which switch fluorescence ratio is on record?
A: 0.99

Q: For GGGGGCGATC, which switch fluorescence ratio is on record?
A: 1.03

Q: With GGGGGCGCCC as the sequence, how does the switch fluorescence ratio read?
A: 0.945

Q: How did the switch fluorescence ratio turn out when GGGGGCGTAG was run?
A: 1.06

Q: Which switch fluorescence ratio does the source give for GGGGGGTGCC here?
A: 0.988

Q: For GGGGGGTTG, which switch fluorescence ratio is on record?
A: 0.934

Q: For GGGGGTACTC, which switch fluorescence ratio is on record?
A: 0.986

Q: GGGGGTTATC was tested. Which switch fluorescence ratio did it give?
A: 1.01

Q: Which switch fluorescence ratio does the source give for GGGGGTTCAC here?
A: 1.02

Q: For GGGGTAACTT, which switch fluorescence ratio is on record?
A: 1.02

Q: GGGGTAAGCA was tested. Which switch fluorescence ratio did it give?
A: 0.986

Q: With GGGGTACACA as the sequence, how does the switch fluorescence ratio read?
A: 1.05

Q: Which switch fluorescence ratio does the source give for GGGGTAGCAG here?
A: 0.988

Q: With GGGGTAGTGA as the sequence, how does the switch fluorescence ratio read?
A: 0.992

Q: GGGGTATGC was tested. Which switch fluorescence ratio did it give?
A: 1.03

Q: GGGGTCAAAA was tested. Which switch fluorescence ratio did it give?
A: 0.999

Q: With GGGGTCACAC as the sequence, how does the switch fluorescence ratio read?
A: 0.992

Q: With GGGGTCATAA as the sequence, how does the switch fluorescence ratio read?
A: 1.01

Q: For GGGGTCCGTT, which switch fluorescence ratio is on record?
A: 1

Q: How did the switch fluorescence ratio turn out when GGGGTCTGAT was run?
A: 0.978

Q: With GGGGTCTTGT as the sequence, how does the switch fluorescence ratio read?
A: 0.994

Q: How did the switch fluorescence ratio turn out when GGGGTGATTA was run?
A: 1

Q: Which switch fluorescence ratio does the source give for GGGGTTCAGT here?
A: 0.99

Q: For GGGGTTCCTG, which switch fluorescence ratio is on record?
A: 0.948

Q: GGGTAAATTC was tested. Which switch fluorescence ratio did it give?
A: 0.976

Q: With GGGTAACACC as the sequence, how does the switch fluorescence ratio read?
A: 0.998

Q: GGGTAAGAC was tested. Which switch fluorescence ratio did it give?
A: 1.01
